# Out of some 110,000 compounds screened, about 230 (0.21%) showed an effect of 50% or more. The list shows a part of the results.
# Target: DPAP1 (Plasmodium falciparum, UniProt Q8IIJ9)
# Experiment: primary screen, percent inhibition; read by cleavage of a fluorogenic dipeptide substrate; higher = more effect of the substance
# Parameters: species or system P. falciparum D10 trophozoite lysates; single well
# 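Note: 30 min substrate incubation versus DMSO and 10 µM JCP410 controls.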
# DPAP1, sequence (Q8IIJ9 whole entry, looked up): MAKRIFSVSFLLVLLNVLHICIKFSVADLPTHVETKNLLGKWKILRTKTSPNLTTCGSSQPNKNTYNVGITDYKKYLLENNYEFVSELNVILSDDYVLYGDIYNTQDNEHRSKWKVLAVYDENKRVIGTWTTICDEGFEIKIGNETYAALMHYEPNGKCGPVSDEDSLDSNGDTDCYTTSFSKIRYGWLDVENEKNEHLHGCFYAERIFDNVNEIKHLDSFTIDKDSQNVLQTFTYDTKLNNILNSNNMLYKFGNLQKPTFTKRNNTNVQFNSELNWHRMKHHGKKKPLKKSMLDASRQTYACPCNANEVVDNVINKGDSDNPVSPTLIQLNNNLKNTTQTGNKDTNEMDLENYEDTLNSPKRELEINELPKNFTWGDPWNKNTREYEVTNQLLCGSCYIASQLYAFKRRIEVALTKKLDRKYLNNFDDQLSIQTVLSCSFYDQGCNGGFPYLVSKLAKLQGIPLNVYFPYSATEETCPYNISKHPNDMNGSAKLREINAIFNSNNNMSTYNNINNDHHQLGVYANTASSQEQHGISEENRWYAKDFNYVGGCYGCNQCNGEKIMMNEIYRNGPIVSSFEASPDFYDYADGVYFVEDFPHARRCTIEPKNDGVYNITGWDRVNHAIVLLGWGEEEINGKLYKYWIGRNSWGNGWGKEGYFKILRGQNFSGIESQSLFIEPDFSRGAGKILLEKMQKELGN
row,SMILES,% Inhibition @ 10 uM
1,CCC1CCc2c(sc(NC(=O)c3ccc(Br)o3)c2C(=O)OC)C1 (centres unmarked),1.43%
2,O=C(NCc1cccs1)c1ccc(CNS(=O)(=O)c2ccc(Br)cc2)cc1,-5.22%
3,CN(C)CCNC(=O)COCc1cc(-c2ccc(F)cc2)on1,-2.69%
4,Cn1c(NC(=O)Cc2ccc(F)cc2)nc2ccccc21,-2.47%
5,CC1CCCCN1C(=O)c1cc(S(=O)(=O)N2CCCCC2)c[nH]1 (centres unmarked),-1.69%
6,COc1ccc(OC)c(-c2nc(O)c3c(n2)Oc2ccccc2C3)c1,8.44%
7,CCCN(CCC)CCCNC(=O)c1oc(=O)c2ccccc2c1-c1ccccc1,-1.54%
8,COc1ccc(NC(=O)CN(C2CCCCC2)S(=O)(=O)c2ccc(C)cc2)cc1,-2.82%
9,COc1ccc(NC(=O)CN(c2ccc(OC)c(Cl)c2)S(C)(=O)=O)cc1Cl,-5.13%
10,O=C(CSc1nc2ccccc2s1)NCc1ccco1,4.01%
11,O=C(Nc1cccc(C(F)(F)F)c1)OCc1ccncc1,5.42%
12,Cc1ncsc1CCOC(=O)C12CC3CC(CC(C3)C1)C2,-1.97%
13,O=C(O)c1nccnc1C(=O)Nc1cc(Cl)ccc1Cl,0.989%
14,CC1=C(C(=O)Nc2ccc(F)cc2)C(c2ccc(C#N)cc2)n2nc(-c3cccs3)nc2N1 (centres unmarked),6.57%
15,COc1cc(OC)c(NC(=O)COc2ccccc2OC)cc1Cl,-1.43%
16,CCN(C1=C(Cl)C(=O)N(c2ccccc2)C1=O)c1ccccc1,-1.37%
17,CCCNC(=O)c1c(Cl)nc(Cl)c(Cl)c1Cl,3.81%
18,O=C(CC1CCOCC1)Nc1ccc(Cl)c(Cl)c1,-3.32%
19,CC1CCCC(C)N1CC(O)COc1ccc(OCC(O)CN2C(C)CCCC2C)cc1 (centres unmarked),4.54%
20,COc1ccc(-c2csc(Nc3ccc(C)c(C)c3)n2)cc1F,2.13%
21,CCOC(=O)c1c(NC(=O)Cn2nc(C(F)(F)F)cc2C)sc2c1CCC(C)C2 (centres unmarked),-6.57%
22,O=C(NCCCN1CCC(N2CCCCC2)CC1)c1cc(-c2ccccc2)c(N2CCCCC2)s1,-8.85%
23,COc1cccc(C2C3=C(O)CCCC3=NC(C)=C2C(=O)Nc2cc(C)ccn2)c1OC (centres unmarked),-1.64%
24,COc1ccc(C2C(C#N)=C(N)Oc3c2c(=O)oc2ccccc32)cc1Br (centres unmarked),-5.81%
25,CCc1nn(C(C)C(=O)NCc2ccccn2)c(=O)c2cc3occc3n12 (centres unmarked),-2%

row,SMILES,% Inhibition @ 10 uM
1,Cc1ccccc1-n1c(S)nnc1-c1ccc(Cl)cc1Cl,1%
2,Oc1oc(-c2ccccc2)cc1/C=N/c1nc(-c2ccccc2)cs1,3.87%
3,C=CCn1c(SCC(=O)NCC2CCCO2)nc2scc(-c3ccc(Cl)cc3)c2c1=O (centres unmarked),-2.77%
4,Cc1ccc(-c2cc(O)c(O)nn2)cc1,-6.22%
5,CC1CCc2c(sc3ncn(CC(=O)O)c(=O)c23)C1 (centres unmarked),5.39%
6,C=CCNc1oc(/C=C/c2ccccc2OC)nc1C#N,0.895%
7,O=C(NC1CCN(Cc2ccccc2)CC1)c1ccc2c(c1)sc1nc(-c3ccc(F)cc3)cn12,10.9%
8,CC(=O)N[C@@H](CCc1ccccc1)C(=O)N[C@@H](CC(C)C)C(=O)N[C@H](Cc1ccccc1)C(=O)N[C@@H](CC(C)C)C(=O)c1nc2ccccc2o1,1.42%
9,Cc1ccc(/C=C/c2nn3c(-c4ccco4)nnc3s2)cc1,4.94%
10,O=C(c1ccccc1Oc1nnnn1-c1ccccc1)N1CCCC1,-1.37%
11,Cc1cc(Br)ccc1NC(=O)CN1CC(c2ccccc2)CC1=O (centres unmarked),-1.36%
12,Cc1oc(-c2ccccc2)nc1CS(=O)CC(=O)N1CCOCC1 (centres unmarked),-5.58%
13,Cc1cc2nc(O)c(O)nc2cc1S(=O)(=O)NC1CCCC(C)C1C (centres unmarked),1.77%
14,O=C(NCc1cccnc1)c1cnn2c(C(F)(F)F)cc(-c3ccc4c(c3)OCO4)nc12,3.32%
15,O=[N+]([O-])c1ccc(Cl)cc1CN1CC=C(c2ccc(F)cc2)CC1,2.1%
16,CCN(CC)C(=O)c1cc(-c2ccc(C)s2)nc2ccccc12,-2.03%
17,Cc1c(C(=O)NCCN2CCOCC2)oc2ccc3c(c12)C(=O)CC1(CCCCC1)O3,-6.58%
18,CSC1=C(C#N)C(c2ccc(O)cc2)CC(=O)N1 (centres unmarked),2.78%
19,O=C(/C=C\Nc1cccc(F)c1)c1ccc2c(c1)OCO2,3.92%
20,CC(C)CP(=O)(O)c1ccccc1,1.41%
21,CC1=C(C#N)C(=O)N(C)C(=O)/C1=C\c1ccc(-c2ccc(Cl)c(C(=O)OCC(C)C)c2)o1,3.27%
22,CCc1c2ccccc2nn1-c1ccccc1C(=O)C(C)=O,2.55%
23,O=S(=O)(NC1CCCCC1SC1=NCCS1)c1ccc(Cl)cc1 (centres unmarked),-3.64%
24,COc1ccc(S(=O)(=O)N2CCC(C(=O)NCc3ccccc3Cl)CC2)cc1,-3.45%
25,COc1cc(C2CC(=O)NC(SCc3ccccc3)=C2C#N)ccc1O (centres unmarked),-3.12%
